Measurements: article PMC12820563
The other results are listed elsewhere or left out. The list includes weakly bound sequences.

What follows are sequences tested against T1, MBP-FoxP3dN (UniProt Q99JB6) (assay: PD-seq (MBP pull-down with sequencing)). Conditions: 20 mM Tris-HCl pH 7.5, 100 mM NaCl, 1.5 mM MgCl2, 0.4 uM protein, 0.1 uM dsDNA library, 30 min, room temperature, amylose pull-down; high values mean tight binding; double strand, one strand shown.
T1 sequence: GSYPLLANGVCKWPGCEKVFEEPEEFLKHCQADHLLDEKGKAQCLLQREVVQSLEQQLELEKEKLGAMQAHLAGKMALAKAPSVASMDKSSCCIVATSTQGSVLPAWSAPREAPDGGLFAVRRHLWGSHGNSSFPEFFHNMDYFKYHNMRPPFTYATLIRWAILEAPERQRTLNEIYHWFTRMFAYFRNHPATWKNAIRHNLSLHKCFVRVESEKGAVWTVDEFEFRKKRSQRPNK
In the case of “GATGATTGTTCTCCCAGCTGATGAATTAGTGTGCTCGAGTAAACAAATTTTCCTAATCTTTCTGTTCAAGCGCCATCTAC”, the binding signal (RPM ratio (pull-down/input)) is reported as 2.52.
Work on “GATGATTGTTCTCCCAGCTGATGAATTATCGAACTCGAGTAAACAAATTTTCCTAATCTTTCTGTTCAAGCGCCATCTAC” yielded a binding signal (RPM ratio (pull-down/input)) of 0.289.
“GATGATTGTTCTCCCAGCTGATGAATTGCTAGGCTCGAGTAAACAAATTTTCCTAATCTTTCTGTTCAAGCGCCATCTAC” was tested, and the binding signal (RPM ratio (pull-down/input)) was 0.452.
With “GATGATTGTTCTCCCAGCTGATGAATTGGATATCTCGAGTAAACAAATTTTCCTAATCTTTCTGTTCAAGCGCCATCTAC” the binding signal (RPM ratio (pull-down/input)) was 0.756.
With “GATGATTGTTCTCCCAGCTGATGAATTCTGCATATCGAGTAAACAAATTTTCCTAATCTTTCTGTTCAAGCGCCATCTAC” the binding signal (RPM ratio (pull-down/input)) was 3.42.
In the case of “GATGATTGTTCTCCCAGCTGATGAATTCGAGTAGTCGAGTAAACAAATTTTCCTAATCTTTCTGTTCAAGCGCCATCTAC”, the binding signal (RPM ratio (pull-down/input)) is reported as 0.423.
With “GATGATTGTTCTCCCAGCTGATGAATTATTAGTGTCGAGTAAACAAATTTTCCTAATCTTTCTGTTCAAGCGCCATCTAC” the binding signal (RPM ratio (pull-down/input)) was 1.29.
“GATGATTGTTCTCCCAGCTGATGAATTAAGGGAATCGAGTAAACAAATTTTCCTAATCTTTCTGTTCAAGCGCCATCTAC” showed a binding signal (RPM ratio (pull-down/input)) of 0.216.
“GATGATTGTTCTCCCAGCTGATGAATTTGCGACCTCGAGTAAACAAATTTTCCTAATCTTTCTGTTCAAGCGCCATCTAC” was tested, and the binding signal (RPM ratio (pull-down/input)) was 0.862.
In the case of “GATGATTGTTCTCCCAGCTGATGAATTAATTTTGTCGAGTAAACAAATTTTCCTAATCTTTCTGTTCAAGCGCCATCTAC”, the binding signal (RPM ratio (pull-down/input)) is reported as 2.25.
With “GATGATTGTTCTCCCAGCTGATGAATTCAGATGATCGAGTAAACAAATTTTCCTAATCTTTCTGTTCAAGCGCCATCTAC” the binding signal (RPM ratio (pull-down/input)) was 0.441.
In the case of “GATGATTGTTCTCCCAGCTGATGAATTTGGGGGGTCGAGTAAACAAATTTTCCTAATCTTTCTGTTCAAGCGCCATCTAC”, the binding signal (RPM ratio (pull-down/input)) is reported as 1.04.
Work on “GATGATTGTTCTCCCAGCTGATGAATTCAGCACTTCGAGTAAACAAATTTTCCTAATCTTTCTGTTCAAGCGCCATCTAC” yielded a binding signal (RPM ratio (pull-down/input)) of 0.696.
Sequence “GATGATTGTTCTCCCAGCTGATGAATTGATGTTTTCGAGTAAACAAATTTTCCTAATCTTTCTGTTCAAGCGCCATCTAC” has a binding signal (RPM ratio (pull-down/input)) of 2.47.
With “GATGATTGTTCTCCCAGCTGATGAATTCCAACAATCGAGTAAACAAATTTTCCTAATCTTTCTGTTCAAGCGCCATCTAC” the binding signal (RPM ratio (pull-down/input)) was 0.562.
“GATGATTGTTCTCCCAGCTGATGAATTCTGTCGGTCGAGTAAACAAATTTTCCTAATCTTTCTGTTCAAGCGCCATCTAC” was tested, and the binding signal (RPM ratio (pull-down/input)) was 0.564.
With “GATGATTGTTCTCCCAGCTGATGAATTGTCACAATCGAGTAAACAAATTTTCCTAATCTTTCTGTTCAAGCGCCATCTAC” the binding signal (RPM ratio (pull-down/input)) was 1.19.
For “GATGATTGTTCTCCCAGCTGATGAATTCCAGAACTCGAGTAAACAAATTTTCCTAATCTTTCTGTTCAAGCGCCATCTAC”, the binding signal (RPM ratio (pull-down/input)) was 0.17.
“GATGATTGTTCTCCCAGCTGATGAATTCGGGCATTCGAGTAAACAAATTTTCCTAATCTTTCTGTTCAAGCGCCATCTAC” gave a binding signal (RPM ratio (pull-down/input)) of 4.9.
For “GATGATTGTTCTCCCAGCTGATGAATTAGCCTCTTCGAGTAAACAAATTTTCCTAATCTTTCTGTTCAAGCGCCATCTAC”, the binding signal (RPM ratio (pull-down/input)) was 1.7.
“GATGATTGTTCTCCCAGCTGATGAATTAGACTCATCGAGTAAACAAATTTTCCTAATCTTTCTGTTCAAGCGCCATCTAC” gave a binding signal (RPM ratio (pull-down/input)) of 0.502.
“GATGATTGTTCTCCCAGCTGATGAATTCCAATAATCGAGTAAACAAATTTTCCTAATCTTTCTGTTCAAGCGCCATCTAC” was tested, and the binding signal (RPM ratio (pull-down/input)) was 0.325.
“GATGATTGTTCTCCCAGCTGATGAATTAACACTATCGAGTAAACAAATTTTCCTAATCTTTCTGTTCAAGCGCCATCTAC” gave a binding signal (RPM ratio (pull-down/input)) of 0.529.
With “GATGATTGTTCTCCCAGCTGATGAATTTACTAGCTCGAGTAAACAAATTTTCCTAATCTTTCTGTTCAAGCGCCATCTAC” the binding signal (RPM ratio (pull-down/input)) was 0.547.
“GATGATTGTTCTCCCAGCTGATGAATTACTCATCTCGAGTAAACAAATTTTCCTAATCTTTCTGTTCAAGCGCCATCTAC” was tested, and the binding signal (RPM ratio (pull-down/input)) was 0.431.
“GATGATTGTTCTCCCAGCTGATGAATTAGTCGCATCGAGTAAACAAATTTTCCTAATCTTTCTGTTCAAGCGCCATCTAC” was tested, and the binding signal (RPM ratio (pull-down/input)) was 1.29.
For “GATGATTGTTCTCCCAGCTGATGAATTGAAGATTTCGAGTAAACAAATTTTCCTAATCTTTCTGTTCAAGCGCCATCTAC”, the binding signal (RPM ratio (pull-down/input)) was 0.281.
Sequence “GATGATTGTTCTCCCAGCTGATGAATTCCGGTACTCGAGTAAACAAATTTTCCTAATCTTTCTGTTCAAGCGCCATCTAC” has a binding signal (RPM ratio (pull-down/input)) of 0.479.
“GATGATTGTTCTCCCAGCTGATGAATTCTCACTTTCGAGTAAACAAATTTTCCTAATCTTTCTGTTCAAGCGCCATCTAC” gave a binding signal (RPM ratio (pull-down/input)) of 0.343.
“GATGATTGTTCTCCCAGCTGATGAATTGAATAAGTCGAGTAAACAAATTTTCCTAATCTTTCTGTTCAAGCGCCATCTAC” gave a binding signal (RPM ratio (pull-down/input)) of 0.232.
“GATGATTGTTCTCCCAGCTGATGAATTAACCTGCTCGAGTAAACAAATTTTCCTAATCTTTCTGTTCAAGCGCCATCTAC” was tested, and the binding signal (RPM ratio (pull-down/input)) was 0.244.
“GATGATTGTTCTCCCAGCTGATGAATTCTATCACTCGAGTAAACAAATTTTCCTAATCTTTCTGTTCAAGCGCCATCTAC” gave a binding signal (RPM ratio (pull-down/input)) of 0.974.
“GATGATTGTTCTCCCAGCTGATGAATTTTGTAGATCGAGTAAACAAATTTTCCTAATCTTTCTGTTCAAGCGCCATCTAC” showed a binding signal (RPM ratio (pull-down/input)) of 1.58.
For “GATGATTGTTCTCCCAGCTGATGAATTACTAGAATCGAGTAAACAAATTTTCCTAATCTTTCTGTTCAAGCGCCATCTAC”, the binding signal (RPM ratio (pull-down/input)) was 0.27.
Sequence “GATGATTGTTCTCCCAGCTGATGAATTGTAACATTCGAGTAAACAAATTTTCCTAATCTTTCTGTTCAAGCGCCATCTAC” has a binding signal (RPM ratio (pull-down/input)) of 1.36.
With “GATGATTGTTCTCCCAGCTGATGAATTTCCGCGCTCGAGTAAACAAATTTTCCTAATCTTTCTGTTCAAGCGCCATCTAC” the binding signal (RPM ratio (pull-down/input)) was 0.448.
For “GATGATTGTTCTCCCAGCTGATGAATTTACCAATTCGAGTAAACAAATTTTCCTAATCTTTCTGTTCAAGCGCCATCTAC”, the binding signal (RPM ratio (pull-down/input)) was 0.53.
In the case of “GATGATTGTTCTCCCAGCTGATGAATTATCCGGATCGAGTAAACAAATTTTCCTAATCTTTCTGTTCAAGCGCCATCTAC”, the binding signal (RPM ratio (pull-down/input)) is reported as 0.152.
Work on “GATGATTGTTCTCCCAGCTGATGAATTTCACGCCTCGAGTAAACAAATTTTCCTAATCTTTCTGTTCAAGCGCCATCTAC” yielded a binding signal (RPM ratio (pull-down/input)) of 0.633.
“GATGATTGTTCTCCCAGCTGATGAATTGTATTTATCGAGTAAACAAATTTTCCTAATCTTTCTGTTCAAGCGCCATCTAC” gave a binding signal (RPM ratio (pull-down/input)) of 6.83.
